Results as given in PMC4336329 (PLoS ONE, 2015).
The campaign covered roughly 310,000 compounds. About 2,200 (0.71%) showed an effect of 50% or more. Effects have a minus sign here. The list shows a part of the results.

These compounds were tested against human ether-à-go-go-related gene (hERG) potassium channel (human, UniProt Q12809) (assay: primary screen, population patch clamp on CHO cells stably expressing hERG).
Sequence of human ether-à-go-go-related gene (hERG) potassium channel (Q12809 whole entry, looked up): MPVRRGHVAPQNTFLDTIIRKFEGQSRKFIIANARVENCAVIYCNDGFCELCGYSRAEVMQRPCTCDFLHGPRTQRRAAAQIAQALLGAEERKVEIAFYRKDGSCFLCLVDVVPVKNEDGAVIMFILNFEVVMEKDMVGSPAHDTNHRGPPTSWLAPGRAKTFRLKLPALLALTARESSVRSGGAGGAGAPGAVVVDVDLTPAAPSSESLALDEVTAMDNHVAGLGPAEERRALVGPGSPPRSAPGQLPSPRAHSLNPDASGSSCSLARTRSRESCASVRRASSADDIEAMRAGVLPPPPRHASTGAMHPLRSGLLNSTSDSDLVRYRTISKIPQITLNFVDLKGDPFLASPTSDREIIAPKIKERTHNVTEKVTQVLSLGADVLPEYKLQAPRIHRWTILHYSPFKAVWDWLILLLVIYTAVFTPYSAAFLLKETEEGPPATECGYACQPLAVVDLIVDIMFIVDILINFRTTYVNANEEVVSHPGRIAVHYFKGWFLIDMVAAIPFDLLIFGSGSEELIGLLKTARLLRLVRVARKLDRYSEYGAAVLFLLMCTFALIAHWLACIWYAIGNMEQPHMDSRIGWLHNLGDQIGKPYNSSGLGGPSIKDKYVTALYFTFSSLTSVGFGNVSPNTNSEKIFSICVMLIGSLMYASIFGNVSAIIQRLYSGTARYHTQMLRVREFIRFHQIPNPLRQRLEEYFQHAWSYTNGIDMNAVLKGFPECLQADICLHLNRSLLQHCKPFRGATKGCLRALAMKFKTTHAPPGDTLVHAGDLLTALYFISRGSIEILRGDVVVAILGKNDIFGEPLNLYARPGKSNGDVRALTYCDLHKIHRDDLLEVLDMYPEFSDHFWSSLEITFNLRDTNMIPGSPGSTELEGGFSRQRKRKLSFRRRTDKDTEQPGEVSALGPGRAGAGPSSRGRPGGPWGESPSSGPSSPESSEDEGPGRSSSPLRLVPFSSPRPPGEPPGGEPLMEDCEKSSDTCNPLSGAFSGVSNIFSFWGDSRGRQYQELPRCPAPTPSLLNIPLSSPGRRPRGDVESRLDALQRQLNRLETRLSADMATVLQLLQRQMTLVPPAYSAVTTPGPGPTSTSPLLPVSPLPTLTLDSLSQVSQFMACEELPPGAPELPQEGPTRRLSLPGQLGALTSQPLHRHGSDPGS

SMILES	hERG current change (%, negative = inhibition) at 1uM [%]
Clc1ccc(-n2nnnc2-c2cnc3ccc(Cl)cc3c2-c2ccccc2)cc1	5.7
C=CCNC(=O)c1ccc(-c2nc3ccccc3nc2-c2ccccc2)cc1	29.9
Cc1cc(C(=O)COC(=O)CCc2nc3ccccc3s2)c(C)n1C	5.36
O=C(NCc1ccc(F)cc1)c1ccc2c(c1)S(=O)(=O)c1ccccc1C2=O	8.86
O=c1c2[nH]c3ccc(Br)cc3c2ncn1CCCn1ccnc1	-46.8
O=C(NC1CC2CCCC(C1)N2C(=O)NC1CCCCC1)c1ccccc1 (stereo not drawn)	7.36
FC(F)(F)c1cc(C(F)(F)F)c2ccc(N3CCN(c4ccccc4)CC3)nc2n1	5.19
Cc1cc(C)n(CCNC(=O)c2ccco2)n1	12.3
COc1ccccc1CCC(=O)OCC(=O)Nc1cc(S(=O)(=O)N2CCOCC2)ccc1C	2.99
COc1ccc(CN2CC(=O)N3[C@H]4c5ccc(OC)cc5OC[C@@H]4[C@H](c4ccccc4)[C@]3(C)C2=O)cc1	11.3
O=C(Nc1cccc(S(=O)(=O)N2CCCCC2)c1)c1cc2ccccc2o1	21.7
COc1ccc(CCNC(=O)CCN2C(=O)c3cccc4cccc(c34)C2=O)cc1OC	8.46
CCS(=O)(=O)N1CCCC(C(=O)NCCc2ccc(OC)c(OC)c2)C1 (stereo not drawn)	9.44
CC1CC(C)CN(C(=O)C(C)N(C)CC(=O)Nc2ccc(Cl)cc2)C1.O=C(O)C(=O)O (stereo not drawn)	1.2
CC1CCCCN1CCCNC(=O)c1nn(C)c2c1CSc1ccccc1-2 (stereo not drawn)	-23.4
CC(=O)N1N=C(c2ccccc2)CC1c1cccs1 (stereo not drawn)	8.67
NC(=S)N=Nc1c(O)[nH]c2ccccc12	8.04
COC(=O)C1=C(c2ccc(F)cc2F)C[C@@H]2CC[C@H]1N2C(=O)NCC1CC1	9.76
O=c1c2ccccc2ncn1C1CCCCC1	-2.4

SMILES	hERG current change (%, negative = inhibition) at 1uM [%]
Cc1ccc(NS(=O)(=O)c2cc(-c3n[nH]c(=O)c4ccccc34)ccc2C)cc1	9.28
COc1ccc(NS(=O)(=O)c2cn(C)nc2C)cc1	3.4
COc1ccccc1CNC(=O)CCC1N=C2c3ccccc3N=C(SCC(=O)NCC3CCCO3)N2C1=O (stereo not drawn)	15.1
COc1cccc(C2c3[nH]c4ccccc4c3CCN2Cc2cnn(C)c2)c1 (stereo not drawn)	-49.4
O=S(=O)(Nc1ncccn1)c1ccc(NC(=S)NCCc2ccccc2)cc1	1.39
Cc1ccc(S(=O)(=O)N2CCCC2C(=O)NCCc2ccccc2)cc1 (stereo not drawn)	5.6
CC(C)NC(=O)COC(=O)Cn1[nH]c(=O)c2ccccc2c1=O	8.44
Cc1cc(NC(=O)CCc2ccc(-c3ccccc3)o2)no1	8.34
CC(=O)OCCCCCCCCCCC[N+]1(C)CCCCC1.[I-]	7.79
O=C1CC(c2cccs2)Cc2nc(NC(=O)C3CC3)ncc21 (stereo not drawn)	12.8
CCc1nnc(NC(=O)CSc2nnc(CNc3cccc(Cl)c3)n2CC)s1	-1.71
COc1cc(C(=O)Nc2nccs2)cc(OC)c1OC	14.2
CCOC(=O)CCNC(=O)N1CCC(CCOc2ccccc2)(C(=O)OCC)CC1	9
CN(NC1OC(=O)c2ccccc21)c1ncc(C(F)(F)F)cc1Cl (stereo not drawn)	9.23
COc1cccc(NC(=S)NCCC(c2ccccc2)c2ccccc2)c1	5.15
COc1cccc(-c2nnc(SCC(=O)Nc3cc(C)on3)n2C)c1	-8.4
O=C(Nc1ccccc1)NC1CCCCC1	9.43
CCOC(=O)C1CCN(C(=O)C2CC(=O)N(c3ccc4c(c3)OCCO4)C2)CC1 (stereo not drawn)	2.02
COCCn1c(=O)[nH]c2cc(C(=O)N3CCN(c4cccc(C)c4C)CC3)ccc2c1=O	13.4

SMILES	hERG current change (%, negative = inhibition) at 1uM [%]
CCNC(=S)N/N=C/c1ccco1	7.17
CCn1cc(/C=C/c2cc[n+](C)cc2)c2ccccc21.[I-]	-0.0391
CC(C)(C)SCCNC(=O)COc1ccc(Cl)cc1	8.67
O=C(NCc1ccc(F)cc1)c1ccc(CS(=O)Cc2ccccc2Cl)o1 (stereo not drawn)	4.6
COc1ccc(OC)c(/C=C/C(=O)OCC(=O)NC2CCCCCCC2)c1	18.3
Cn1c(CCN2CCN(c3ccccn3)CC2)nc2cc(NC(=O)COc3ccc(Cl)cc3)ccc21	0.879
CN1C(=O)N(C)C2(c3ccccc3)Nn3c(s/c(=C/c4ccccc4)c3=O)=NC12c1ccccc1 (stereo not drawn)	22.1
Cc1nn(C)c(C)c1NC(=O)CCl.Cl	11.3
CC(C1CC2CCC1C2)n1c(-c2ccco2)n[nH]c1=S (stereo not drawn)	13.6
N#Cc1c(SCC(=O)O)nc(N2CCCCC2)c2c1CCCC2	10.5
O=C(CCCN1C(=O)/C(=C\c2ccccc2)SC1=S)Nc1ccc(O)cc1	7.95
Cc1cc(C)c(C#N)c(SCC(=O)NC(C)(C)C)n1	-16.7
CC(C)Cc1cc(-c2ccco2)c(C#N)c(N)n1	7.21
CC1(C)CC(=O)C=C(NCc2ccccc2)C1	11.9
O=C1N/C(=N/N=C/c2ccco2)SC1Cc1ccccc1 (stereo not drawn)	8.44
COc1ccc(CCNC2CC(=O)N(CCc3ccc(OC)c(OC)c3)C2=O)cc1 (stereo not drawn)	7.42
COc1ccc(CCN(C)C(=O)c2ccc(OCC(=O)N3CCOCC3)c(OC)c2)cc1OC	13.4
CN(C)C(=O)c1cc(C(=O)c2c(F)cccc2F)c[nH]1	5.83
CC(C)[C@H](NC(N)=O)C(=O)Nc1ccc2c(c1)CCC2	1.21
